Data taken from article PMC8904790.
No constants are given. Whether binding was seen depends on the method and setting. In cells and extracts the contact can be indirect. Some results given as binding are weak or reduced against the parent protein; the word gives no strength. For part of these data: Tags and fused reporters may be left off the sequences shown.

Sequences of proteins named here, by UniProt entry; tags and fusion partners are left off. A change or cut given only in a name is not applied to a line headed by its entry. A line that says so, or that is headed by a name, gives the form on record, which may keep a tag or linker.
UniProt P05627: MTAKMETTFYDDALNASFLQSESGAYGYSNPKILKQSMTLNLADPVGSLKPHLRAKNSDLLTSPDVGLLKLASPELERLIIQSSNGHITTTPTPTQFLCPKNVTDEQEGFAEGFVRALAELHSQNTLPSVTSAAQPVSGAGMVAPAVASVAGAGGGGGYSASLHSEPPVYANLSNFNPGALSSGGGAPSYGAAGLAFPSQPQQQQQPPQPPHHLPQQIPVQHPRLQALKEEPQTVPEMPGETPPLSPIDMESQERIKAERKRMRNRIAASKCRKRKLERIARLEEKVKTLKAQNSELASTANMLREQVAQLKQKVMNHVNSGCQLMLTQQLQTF
Δc-JUN (truncated c-JUN mutant lacking amino acids 207–219), Myc-tagged (P05627, form named): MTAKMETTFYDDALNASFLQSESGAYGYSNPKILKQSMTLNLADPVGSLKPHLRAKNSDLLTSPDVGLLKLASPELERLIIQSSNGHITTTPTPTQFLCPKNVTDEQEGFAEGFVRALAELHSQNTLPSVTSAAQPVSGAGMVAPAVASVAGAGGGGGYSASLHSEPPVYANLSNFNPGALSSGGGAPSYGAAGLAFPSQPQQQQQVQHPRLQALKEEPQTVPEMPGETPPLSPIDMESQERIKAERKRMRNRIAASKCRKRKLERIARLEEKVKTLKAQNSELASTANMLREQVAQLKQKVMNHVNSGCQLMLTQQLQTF

B1: NRF2-HA (nuclear factor-like 2, HA-tagged) (protein, UniProt Q60795 1-597)
chain: MMDLELPPPGLQSQQDMDLIDILWRQDIDLGVSREVFDFSQRQKDYELEKQKKLEKERQEQLQKEQEKAFFAQFQLDEETGEFLPIQPAQHIQTDTSGSASYSQVAHIPKQDALYFEDCMQLLAETFPFVDDHESLALDIPSHAESSVFTAPHQAQSLNSSLEAAMTDLSSIEQDMEQVWQELFSIPELQCLNTENKQLADTTAVPSPEATLTEMDSNYHFYSSISSLEKEVGNCGPHFLHGFEDSFSSILSTDDASQLTSLDSNPTLNTDFGDEFYSAFIAEPSDGGSMPSSAAISQSLSELLDGTIEGCDLSLCKAFNPKHAEGTMEFNDSDSGISLNTSPSRASPEHSVESSIYGDPPPGFSDSEMEELDSAPGSVKQNGPKAQPAHSPGDTVQPLSPAQGHSAPMRESQCENTTKKEVPVSPGHQKAPFTKDKHSSRLEAHLTRDELRAKALHIPFPVEKIINLPVDDFNEMMSKEQFNEAQLALIRDIRRRGKNKVAAQNCRKRKLENIVELEQDLGHLKDEREKLLREKGENDRNLHLLKRRLSTLYLEVFSMLRDEDGKPYSPSEYSLQQTRDGNVFLVPKSKKPDTKKN
B2: endogenous NRF2 (protein, UniProt Q60795 1-597)
chain: B1 chain
B3: ΔNRF2 (truncated NRF2 mutant lacking amino acids 107–115), HA-tagged (protein, UniProt Q60795)
chain: MMDLELPPPGLQSQQDMDLIDILWRQDIDLGVSREVFDFSQRQKDYELEKQKKLEKERQEQLQKEQEKAFFAQFQLDEETGEFLPIQPAQHIQTDTSGSASYSQVAFEDCMQLLAETFPFVDDHESLALDIPSHAESSVFTAPHQAQSLNSSLEAAMTDLSSIEQDMEQVWQELFSIPELQCLNTENKQLADTTAVPSPEATLTEMDSNYHFYSSISSLEKEVGNCGPHFLHGFEDSFSSILSTDDASQLTSLDSNPTLNTDFGDEFYSAFIAEPSDGGSMPSSAAISQSLSELLDGTIEGCDLSLCKAFNPKHAEGTMEFNDSDSGISLNTSPSRASPEHSVESSIYGDPPPGFSDSEMEELDSAPGSVKQNGPKAQPAHSPGDTVQPLSPAQGHSAPMRESQCENTTKKEVPVSPGHQKAPFTKDKHSSRLEAHLTRDELRAKALHIPFPVEKIINLPVDDFNEMMSKEQFNEAQLALIRDIRRRGKNKVAAQNCRKRKLENIVELEQDLGHLKDEREKLLREKGENDRNLHLLKRRLSTLYLEVFSMLRDEDGKPYSPSEYSLQQTRDGNVFLVPKSKKPDTKKN

Columns and labels:
[1] = molecular target: c-JUN-Myc (c-JUN, Myc-tagged) (UniProt P05627); experiment: co-IP; transfected osteocytes in the absence of HGHF treatment (Fig. S9); NP-40 lysis buffer, Protein A/G PLUS-Agarose, western blot
[2] = molecular target: c-JUN-Myc (c-JUN, Myc-tagged) (UniProt P05627); experiment: co-IP; osteocytes transfected with NRF2-HA and c-JUN-Myc plasmids (or their truncations); NP-40 lysis buffer, primary antibody or normal IgG at 4 °C for 16 h, Protein A/G PLUS-Agarose, western blot
[3] = molecular target: Δc-JUN (truncated c-JUN mutant lacking amino acids 207–219), Myc-tagged (UniProt P05627); experiment: as above
[4] = molecular target: endogenous c-JUN (mouse (endogenous in IDG-SW3)) (UniProt P05627); experiment: co-IP; endogenous proteins in osteocytes in the absence of HGHF treatment (Fig. S9); NP-40 lysis buffer, Protein A/G PLUS-Agarose, western blot
[5] = molecular target: endogenous c-JUN (mouse (endogenous in IDG-SW3)) (UniProt P05627); experiment: co-IP; endogenous proteins in osteocytes under HGHF treatment; NP-40 lysis buffer, primary antibody or normal IgG at 4 °C for 16 h, Protein A/G PLUS-Agarose, western blot

Row | Binder | binding [1] | binding [2] | binding [3] | binding [4] | binding [5]
1 | B1 | binds weakly | binds | no binding | – | –
2 | B2 | – | – | – | no binding (condition: in the absence of HGHF treatment) | binds
3 | B3 | – | no binding | – | – | –
